Assay results as given in patent publication US12692294B2, “Engineered NRG-1 variants with improved selectivity toward ErbB4 but not against ErbB3” (Amgen Inc., priority 2021, dated 2026).
Numbering of substitutions follows the chain as printed. Names and notes keep the numbering of the source.

B1: huNRG1(S177-Q237)(2H7)::GG::huFcSEFL2 (Pb): Fc fusion of NRG1 variant SEQ ID NO:158 (protein)
chain: SHLVKCGEKEKSFCVNGGECYVVEDLSIPSRFLCKCPNEFTGDRCQKVVMASFYKAEELYQGG[letters of human IgG1 Fc with R292C N297G V302C (EU numbers) not shown]
modifications: huNRG1(S177-Q237)(2H7)::GG::huFcSEFL2 (Pb)
B2: huNRG1(S177-F229)(NRGE1C): (G4A)2:G4::huFcSEFL2 (Pb): Fc fusion of NRG1 variant SEQ ID NO:117 (protein)
chain: SHLVKCGEKHKSFCVNGGECFMIEGPSNPSRYLCKCPNEFTGDRCQEDFMASFGGGGAGGGGAGGGG[letters of human IgG1 Fc with R292C N297G V302C (EU numbers) not shown]
modifications: huNRG1(S177-F229)(NRGE1C)::(G4A)2G4::huFcSEFL2 (Pb)
B3: huNRG1(S177-Q237)(3A7)::GG::huFcSEFL2 (Pb): Fc fusion of NRG1 variant SEQ ID NO:159 (protein)
chain: B1 chain with G7A, Y21F, V23I, D25G, L26S
modifications: huNRG1(S177-Q237)(3A7)::GG::huFcSEFL2 (Pb)
B4: huNRG1(S177-Q237)(3B8)::GG::huFcSEFL2 (Pb): Fc fusion of NRG1 variant SEQ ID NO:160 (protein)
chain: SHLVKCGERDKSFCVNGGECFMVERSSIPSRYLCKCPNEFTGDRCQDFFLASFYKAEELYQGG[letters of human IgG1 Fc with R292C N297G V302C (EU numbers) not shown]
modifications: huNRG1(S177-Q237)(3B8)::GG::huFcSEFL2 (Pb)
B5: huNRG1(S177-Q237)(3D6)::GG::huFcSEFL2 (Pb): Fc fusion of NRG1 variant SEQ ID NO:161 (protein)
chain: B4 chain with R9S, M22V, V23I, R25G, Y32F, L50M
modifications: huNRG1(S177-Q237)(3D6)::GG::huFcSEFL2 (Pb)
B6: huNRG1(S177-Q237)(3D8)::GG::huFcSEFL2 (Pb): Fc fusion of NRG1 variant SEQ ID NO:162 (protein)
chain: B4 chain with R9K, S12T, R25D, S26L, Y32F, L50M
modifications: huNRG1(S177-Q237)(3E6)::GG::huFcSEFL2 (Pb)
B7: huNRG1(S177-Q237)(3E6)::GG::huFcSEFL2 (Pb): Fc fusion of NRG1 variant SEQ ID NO:163 (protein)
chain: B1 chain with G7A, E10H, V23I, D25G, L26S, V48D, V49F
modifications: huNRG1(S177-Q237)(3E6)::GG::huFcSEFL2 (Pb)
B8: huNRG1(S177-Q237)(3E9)::GG::huFcSEFL2 (Pb): Fc fusion of NRG1 variant SEQ ID NO:164 (protein)
chain: B4 chain with G7A, R9N, D10H, S12T, M22V, V23I, R25G, I28N, F48V
modifications: huNRG1(S177-Q237)(3F2)::GG::huFcSEFL2 (Pb)
B9: huNRG1(S177-Q237)(3F2)::GG::huFcSEFL2 (Pb): Fc fusion of NRG1 variant SEQ ID NO:165 (protein)
chain: B4 chain with R9S, D10H, V23I, R25G, S26P, I28N, F48D, L50M
modifications: huNRG1(S177-Q237)(3F2)::GG::huFcSEFL2 (Pb)
B10: huNRG1(S177-Q237)(3G3)::GG::huFcSEFL2 (Pb): Fc fusion of NRG1 variant SEQ ID NO:166 (protein)
chain: B1 chain with K9R, S12T, Y21F, V22M, V23I, D25H, K47E, V48D, V49F
modifications: huNRG1(S177-Q237)(3G3)::GG::huFcSEFL2 (Pb)
B11: huNRG1(S177-Q237)(3G9)::GG::huFcSEFL2 (Pb): Fc fusion of NRG1 variant SEQ ID NO:167 (protein)
chain: B1 chain with K9S, E10H, Y21F, V22M, I28N, V48D, V49F
modifications: huNRG1(S177-Q237)(3G9)::GG::huFcSEFL2 (Pb)
B12: huNRG1(S177-Q237)(3H5)::GG::huFcSEFL2 (Pb): Fc fusion of NRG1 variant SEQ ID NO:168 (protein)
chain: B1 chain with K9R, E10H, D25R, L26P, V48D, V49F, M50L
modifications: huNRG1(S177-Q237)(3H5)::GG::huFcSEFL2 (Pb)
B13: huNRG1(S177-Q237)(3H8)::GG::huFcSEFL2 (Pb): Fc fusion of NRG1 variant SEQ ID NO:171 (protein)
chain: B4 chain with R9K, D10H, F21Y, R25G, D47E, F48D, L50M
modifications: huNRG1(S177-Q237)(3H8)::GG::huFcSEFL2 (Pb)
B14: huNRG1(S177-Q237)(_200E)::GG::huFcSEFL2 (Pb): Fc fusion of NRG1 variant SEQ ID NO:172 (protein)
chain: B1 chain with G7A, S12T, Y21F, V22M, I28N, F32Y, K47N, V48Y
modifications: huNRG1(S177-Q237)(_200E)::GG::huFcSEFL2 (Pb)
B15: huNRG1(S177-F229)(NRGE1C)::(G4S)2::G4::huFcSEFL2 (Pb): Fc fusion of NRG1 variant SEQ ID NO:117 (protein)
chain: B2 chain with A58S, A63S
modifications: huNRG1(S177-F229) (NRGE1C)::(G4S)2::G4::huFcSEFL2 (Pb)
B16: huNRG1(S177-Q237)()200E_KDF)::GG::huFcSEFL2 (Pb): Fc fusion of NRG1 variant SEQ ID NO:173 (protein)
chain: B1 chain with G7A, S12T, Y21F, V22M, I28N, F32Y, V48D, V49F
modifications: huNRG1(S177-Q237)(_200E_KDF)::GG::huFcSEFL2 (Pb)
B17: huNRG1(S177-Q237)(_FVIEDPSI)::GG::huFcSEFL2 (Pb): Fc fusion of NRG1 variant SEQ ID NO:174 (protein)
chain: B1 chain with G7A, S12T, Y21F, V23I, L26P, F32Y, K47N, V48Y
modifications: huNRG1(S177-Q237)(_FVIEDPSI)::GG::huFcSEFL2 (Pb)

These molecules were tested against T1, ErbB3 (Rattus norvegicus, UniProt Q62799) (assay: In vitro phosphorylation of Akt in rat Schwann cells). Details: Akt (Serine 473) phosphorylation, 15 minutes treatment, read-out: Schwann cells (SC) (ErbB3) Avg EC50.
T1 construct: forming the ErbB2/ErbB4 complex in cardiomyocytes and the ErbB2/ErbB3 complex in Schwann cells; endogenous in cells; host or cells: rat Schwann cells
T1 sequence (Q62799 20-1339): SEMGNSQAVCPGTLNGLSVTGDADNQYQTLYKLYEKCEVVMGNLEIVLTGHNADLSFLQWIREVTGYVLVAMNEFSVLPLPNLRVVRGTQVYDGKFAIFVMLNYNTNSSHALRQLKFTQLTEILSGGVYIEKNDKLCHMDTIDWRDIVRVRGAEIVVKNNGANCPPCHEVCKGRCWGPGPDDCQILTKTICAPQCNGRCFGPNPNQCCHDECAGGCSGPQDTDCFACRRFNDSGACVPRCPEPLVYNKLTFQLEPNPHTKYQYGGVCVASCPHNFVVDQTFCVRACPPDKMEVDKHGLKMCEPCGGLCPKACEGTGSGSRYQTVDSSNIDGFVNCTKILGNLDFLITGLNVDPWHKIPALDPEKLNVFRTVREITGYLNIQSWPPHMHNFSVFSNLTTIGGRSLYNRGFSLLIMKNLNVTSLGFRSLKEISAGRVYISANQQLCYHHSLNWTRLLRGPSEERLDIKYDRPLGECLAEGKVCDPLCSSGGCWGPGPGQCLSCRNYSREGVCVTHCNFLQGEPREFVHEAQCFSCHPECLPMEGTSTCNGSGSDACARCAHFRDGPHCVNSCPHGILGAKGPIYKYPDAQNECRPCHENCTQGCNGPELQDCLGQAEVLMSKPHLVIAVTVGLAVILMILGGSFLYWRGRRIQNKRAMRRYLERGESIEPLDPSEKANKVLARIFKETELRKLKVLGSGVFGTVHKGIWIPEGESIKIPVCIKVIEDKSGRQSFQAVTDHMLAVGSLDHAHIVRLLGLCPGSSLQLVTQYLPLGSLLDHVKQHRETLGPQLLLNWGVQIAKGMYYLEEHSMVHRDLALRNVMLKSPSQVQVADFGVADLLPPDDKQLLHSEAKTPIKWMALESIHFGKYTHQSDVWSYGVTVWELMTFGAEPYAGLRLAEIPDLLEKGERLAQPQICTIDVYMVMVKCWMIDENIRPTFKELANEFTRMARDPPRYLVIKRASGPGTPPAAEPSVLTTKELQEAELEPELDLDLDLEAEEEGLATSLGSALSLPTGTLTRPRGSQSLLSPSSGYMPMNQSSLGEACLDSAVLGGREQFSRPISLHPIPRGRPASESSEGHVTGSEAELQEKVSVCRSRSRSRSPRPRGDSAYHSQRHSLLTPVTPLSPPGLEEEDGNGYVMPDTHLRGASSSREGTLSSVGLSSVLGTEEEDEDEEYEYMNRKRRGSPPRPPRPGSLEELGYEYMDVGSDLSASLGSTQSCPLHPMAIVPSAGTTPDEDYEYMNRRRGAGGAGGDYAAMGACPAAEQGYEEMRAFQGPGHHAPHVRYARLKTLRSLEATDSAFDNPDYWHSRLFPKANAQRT
T1 sequence (P06494 23-1257 partner): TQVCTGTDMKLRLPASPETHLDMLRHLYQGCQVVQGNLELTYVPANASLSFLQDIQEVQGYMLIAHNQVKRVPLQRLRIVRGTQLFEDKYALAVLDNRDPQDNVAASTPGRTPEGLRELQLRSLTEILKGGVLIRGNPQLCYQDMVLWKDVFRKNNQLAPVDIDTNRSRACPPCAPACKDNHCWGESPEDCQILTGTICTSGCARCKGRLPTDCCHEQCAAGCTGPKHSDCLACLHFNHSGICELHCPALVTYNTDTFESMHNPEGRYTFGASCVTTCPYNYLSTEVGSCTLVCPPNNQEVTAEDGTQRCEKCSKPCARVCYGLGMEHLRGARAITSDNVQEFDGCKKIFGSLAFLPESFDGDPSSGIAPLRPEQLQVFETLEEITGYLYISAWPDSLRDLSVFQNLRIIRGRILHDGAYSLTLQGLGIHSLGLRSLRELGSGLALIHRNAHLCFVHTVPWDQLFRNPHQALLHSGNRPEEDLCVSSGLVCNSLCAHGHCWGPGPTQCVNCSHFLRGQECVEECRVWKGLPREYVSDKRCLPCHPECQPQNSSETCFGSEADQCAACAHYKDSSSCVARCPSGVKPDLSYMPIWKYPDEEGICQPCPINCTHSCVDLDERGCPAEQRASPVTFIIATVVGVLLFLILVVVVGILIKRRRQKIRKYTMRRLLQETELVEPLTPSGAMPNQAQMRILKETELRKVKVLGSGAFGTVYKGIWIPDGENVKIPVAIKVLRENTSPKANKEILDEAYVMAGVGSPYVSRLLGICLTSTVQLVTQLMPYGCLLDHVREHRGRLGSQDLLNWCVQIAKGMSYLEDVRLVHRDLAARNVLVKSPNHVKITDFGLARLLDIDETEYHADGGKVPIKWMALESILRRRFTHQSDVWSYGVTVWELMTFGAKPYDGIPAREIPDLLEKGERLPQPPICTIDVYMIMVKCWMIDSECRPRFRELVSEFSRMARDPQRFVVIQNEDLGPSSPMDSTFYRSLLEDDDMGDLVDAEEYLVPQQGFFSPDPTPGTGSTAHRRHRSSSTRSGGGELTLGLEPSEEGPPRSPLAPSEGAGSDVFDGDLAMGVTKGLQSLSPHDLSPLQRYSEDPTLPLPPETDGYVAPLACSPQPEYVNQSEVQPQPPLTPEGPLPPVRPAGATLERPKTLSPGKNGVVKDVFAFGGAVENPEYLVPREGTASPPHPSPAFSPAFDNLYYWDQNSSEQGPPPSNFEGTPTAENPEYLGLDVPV
Format: cell-based
Protocol: (§1) In Vitro Phosphorylation of Akt in Neonatal Rat Cardiomyocytes and Rat Schwann Cells by Neuregulin Variants
(§2) Specificity of neuregulin variants towards cardiomyocytes (ErbB4) versus Schwann cells (ErbB3) was tested by measuring Akt activity generated by formation of the ErbB2/ErbB4 and ErbB2/ErbB3 complexes. Upon activation by neuregulin, the ErbB4 and ErbB3 receptors dimerize preferentially with the ErbB2 co-receptor, forming the ErbB2/ErbB4 complex in cardiomyocytes and the ErbB2/ErbB3 complex in Schwann cells, both of which signal through the Akt pathway. Neonatal rat cardiomyocytes were isolated from hearts of Sprague Dawley rat pups at 0 to 4 days old according to manufacturer's protocol using the Neomyt kit and plated on Surecoat plates in NS media containing serum (all from Cellultron Life Technologies, Baltimore, MD). Rat Schwann cells were plated in Poly-D-Lysine coated plates with Dulbecco's modified Eagle's media (DMEM) supplemented with fetal bovine serum (Thermo Fisher) and forskolin (Millipore Sigma).
(§3) After a 24-hour incubation in a humidified incubator maintained at 37° C. and 5% CO2, cardiomyocytes and Schwann cells were washed with serum free media and incubated an additional 16 hours in DMEM supplemented with bovine serum albumin (Sigma). Both cell lines were then treated with titrations of the neuregulin variant molecules for 15 minutes, upon which cells were lysed in lysis buffer (Meso Scale Discovery (MSD)). For detection of Akt phosphorylation, lysates were added to the Multi-Spot 96-Well 4-Spot Phospho (Serine 473)/Total Akt plates (MSD), incubated according to the manufacturer's protocol and read in the SECTOR Imager 6000 (MSD). For both cell assays, the percent phosphorylation of Akt was calculated by multiplying the phospho Akt signal by 2, then dividing by the phospho Akt signal added to the total Akt signal and then multiplying by 100. The phosphorylation of Akt data points were fitted using a log (agonist) versus response, variable slope (4 parameters) analysis in GraphPad Prism to generate EC50 curves. The CM % agonism reflect the top value of the data points.
For B1, the EC50 was 110 nM. For B2, the EC50 was over 10000 nM. B3 showed an EC50 of 46.5 nM. With B4 the EC50 was 3000 nM. In the case of B5, the EC50 is reported as over 10000 nM. In the case of B6, the EC50 is reported as over 3000 nM. With B7 the EC50 was over 10000 nM. For B8, the EC50 was over 3000 nM. B9 gave an EC50 of over 10000 nM. B10 showed an EC50 of over 10000 nM. Molecule B11 has an EC50 of over 10000 nM. With B12 the EC50 was over 10000 nM. B13 showed an EC50 of over 10000 nM. With B14 the EC50 was 4.82 nM. B15 was tested, and the EC50 was over 10000 nM. With B16 the EC50 was 121 nM. B17 was tested, and the EC50 was 4.27 nM.

These molecules were tested against T2, ErbB4 (Rattus norvegicus, UniProt Q62956) (assay: In vitro phosphorylation of Akt in neonatal rat cardiomyocytes). Details: Akt (Serine 473) phosphorylation, neonatal rat cardiomyocytes, 15 minutes treatment; read-out: Cardiomyocyte (CM) (ErbB4) Avg EC50.
T2 construct: forming the ErbB2/ErbB4 complex in cardiomyocytes and the ErbB2/ErbB3 complex in Schwann cells; endogenous in cells; host or cells: primary neonatal rat cardiomyocytes (Sprague Dawley pups, 0 to 4 days old)
T2 sequence (Q62956 26-1308): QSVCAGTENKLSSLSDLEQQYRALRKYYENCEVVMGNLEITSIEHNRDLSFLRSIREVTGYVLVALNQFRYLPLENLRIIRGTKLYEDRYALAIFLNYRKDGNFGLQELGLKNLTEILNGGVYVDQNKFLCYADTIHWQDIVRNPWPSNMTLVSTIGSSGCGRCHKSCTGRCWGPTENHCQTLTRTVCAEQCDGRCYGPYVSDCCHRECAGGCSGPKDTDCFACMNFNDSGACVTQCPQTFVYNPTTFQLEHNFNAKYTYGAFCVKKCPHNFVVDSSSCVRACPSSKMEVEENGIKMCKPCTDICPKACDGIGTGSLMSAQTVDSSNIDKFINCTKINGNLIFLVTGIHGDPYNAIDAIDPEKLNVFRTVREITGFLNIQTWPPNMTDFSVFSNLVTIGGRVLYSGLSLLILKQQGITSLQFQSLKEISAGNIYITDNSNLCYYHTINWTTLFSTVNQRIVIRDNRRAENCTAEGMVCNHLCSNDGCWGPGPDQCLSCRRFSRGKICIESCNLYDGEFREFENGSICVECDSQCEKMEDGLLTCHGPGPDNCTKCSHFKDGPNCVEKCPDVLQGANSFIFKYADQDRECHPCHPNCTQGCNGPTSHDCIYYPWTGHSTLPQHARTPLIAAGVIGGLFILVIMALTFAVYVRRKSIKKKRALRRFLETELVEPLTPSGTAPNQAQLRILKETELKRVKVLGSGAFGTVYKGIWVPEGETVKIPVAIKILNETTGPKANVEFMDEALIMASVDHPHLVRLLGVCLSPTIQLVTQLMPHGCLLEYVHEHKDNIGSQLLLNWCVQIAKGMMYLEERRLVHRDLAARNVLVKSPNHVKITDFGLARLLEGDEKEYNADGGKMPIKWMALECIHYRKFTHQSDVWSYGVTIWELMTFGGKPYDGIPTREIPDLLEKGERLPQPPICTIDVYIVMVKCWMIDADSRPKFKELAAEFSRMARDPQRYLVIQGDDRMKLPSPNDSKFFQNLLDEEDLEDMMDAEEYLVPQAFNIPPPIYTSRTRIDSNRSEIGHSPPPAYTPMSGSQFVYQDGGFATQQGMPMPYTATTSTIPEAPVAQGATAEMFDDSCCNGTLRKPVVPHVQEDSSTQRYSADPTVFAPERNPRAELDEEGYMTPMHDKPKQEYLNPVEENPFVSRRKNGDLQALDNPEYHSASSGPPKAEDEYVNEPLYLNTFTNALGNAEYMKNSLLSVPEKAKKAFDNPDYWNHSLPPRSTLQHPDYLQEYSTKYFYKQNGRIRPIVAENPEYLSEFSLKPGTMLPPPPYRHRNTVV
T2 sequence (P06494 23-1257 partner): as the sequence (P06494 23-1257 partner) above
Format: cell-based
Protocol: as §1, §2, §3
For B1, the EC50 was 0.3 nM. B2 showed an EC50 of 0.49 nM. B3 gave an EC50 of 0.366 nM. In the case of B4, the EC50 is reported as 1.4 nM. Molecule B5 has an EC50 of 2.6 nM. Molecule B6 has an EC50 of 0.51 nM. B7 showed an EC50 of 0.35 nM. Work on B8 yielded an EC50 of 2.68 nM. Work on B9 yielded an EC50 of 0.738 nM. Work on B10 yielded an EC50 of 1.84 nM. B11 showed an EC50 of 0.581 nM. In the case of B12, the EC50 is reported as 1.27 nM. In the case of B13, the EC50 is reported as 0.276 nM. B14 gave an EC50 of 0.452 nM. Work on B15 yielded an EC50 of 0.62 nM. In the case of B16, the EC50 is reported as 2 nM. Work on B17 yielded an EC50 of 0.177 nM.

Same assay, conditions: ratio of EC50s Schwann cells/cardiomyocytes
With B1 the “Selectivity SC/CM” value was 368. For B2, the “Selectivity SC/CM” value was over 10000. In the case of B3, the “Selectivity SC/CM” value is reported as 127. For B4, the “Selectivity SC/CM” value was 2147. In the case of B5, the “Selectivity SC/CM” value is reported as over 3800. For B6, the “Selectivity SC/CM” value was over 5800. With B7 the “Selectivity SC/CM” value was over 10000. For B8, the “Selectivity SC/CM” value was over 8500. B9 was tested, and the “Selectivity SC/CM” value was over 10000. In the case of B10, the “Selectivity SC/CM” value is reported as over 5400. With B11 the “Selectivity SC/CM” value was over 10000. B12 was tested, and the “Selectivity SC/CM” value was over 7800. B13 was tested, and the “Selectivity SC/CM” value was over 10000. In the case of B14, the “Selectivity SC/CM” value is reported as 11. With B15 the “Selectivity SC/CM” value was over 10000. B16 was tested, and the “Selectivity SC/CM” value was 60. For B17, the “Selectivity SC/CM” value was 24.

Same assay, conditions: top value of the Akt phosphorylation data points in cardiomyocytes; wild-type control 100
In the case of B2, the “CM % Agonism AVG” value is reported as 82.7%. B7 was tested, and the “CM % Agonism AVG” value was “Full”. B11 was tested, and the “CM % Agonism AVG” value was “Full”. In the case of B12, the “CM % Agonism AVG” value is reported as “Full”. With B13 the “CM % Agonism AVG” value was “Full”. In the case of B14, the “CM % Agonism AVG” value is reported as “Full”. With B15 the “CM % Agonism AVG” value was 79.4%. For B16, the “CM % Agonism AVG” value was “Full”. For B17, the “CM % Agonism AVG” value was “Full”.
